# In article PMC4336329 (PLoS ONE, 2015):
# About 2,200 (0.71%) of roughly 310,000 compounds showed an effect of 50% or more. The effect is printed as a negative number. The list shows a part of the results.
# Target: human ether-à-go-go-related gene (hERG) potassium channel (human, UniProt Q12809)
# Assay: primary screen, population patch clamp on CHO cells stably expressing hERG
# Sequence of human ether-à-go-go-related gene (hERG) potassium channel (Q12809 whole entry, looked up): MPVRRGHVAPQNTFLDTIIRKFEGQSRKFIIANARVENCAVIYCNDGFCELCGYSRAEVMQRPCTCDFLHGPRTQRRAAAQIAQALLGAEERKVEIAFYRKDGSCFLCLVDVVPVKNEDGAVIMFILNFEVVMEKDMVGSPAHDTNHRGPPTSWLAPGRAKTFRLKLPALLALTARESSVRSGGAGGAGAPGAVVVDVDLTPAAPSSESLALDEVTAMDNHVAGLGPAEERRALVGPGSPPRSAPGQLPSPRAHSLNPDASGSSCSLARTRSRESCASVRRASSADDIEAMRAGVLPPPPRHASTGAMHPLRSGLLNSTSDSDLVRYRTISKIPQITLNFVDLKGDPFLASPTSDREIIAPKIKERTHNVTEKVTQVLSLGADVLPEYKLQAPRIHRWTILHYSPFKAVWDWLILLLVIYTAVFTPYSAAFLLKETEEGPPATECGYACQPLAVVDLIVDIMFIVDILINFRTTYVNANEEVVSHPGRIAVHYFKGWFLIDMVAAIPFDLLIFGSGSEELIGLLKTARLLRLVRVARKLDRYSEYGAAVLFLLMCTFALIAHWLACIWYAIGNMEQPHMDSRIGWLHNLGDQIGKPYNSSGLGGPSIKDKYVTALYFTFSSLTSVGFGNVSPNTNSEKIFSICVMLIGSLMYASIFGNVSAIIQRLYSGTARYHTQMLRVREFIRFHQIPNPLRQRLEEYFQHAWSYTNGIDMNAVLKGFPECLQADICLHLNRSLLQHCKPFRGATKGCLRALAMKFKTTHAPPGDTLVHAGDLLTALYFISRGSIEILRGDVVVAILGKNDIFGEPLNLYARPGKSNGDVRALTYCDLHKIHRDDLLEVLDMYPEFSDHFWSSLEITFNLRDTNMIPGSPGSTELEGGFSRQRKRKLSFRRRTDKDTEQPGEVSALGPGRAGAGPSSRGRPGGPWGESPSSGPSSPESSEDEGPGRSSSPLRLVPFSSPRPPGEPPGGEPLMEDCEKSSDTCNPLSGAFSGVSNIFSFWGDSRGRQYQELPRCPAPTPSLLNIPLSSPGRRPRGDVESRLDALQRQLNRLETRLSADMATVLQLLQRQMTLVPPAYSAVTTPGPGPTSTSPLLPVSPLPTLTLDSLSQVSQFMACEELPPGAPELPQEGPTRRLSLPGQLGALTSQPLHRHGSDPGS
row,Compound,"hERG current change (%, negative = inhibition) at 1uM [%]"
1,CCCn1c(N2CCN(C(=O)Nc3ccccc3)CC2)nc2ccccc21,-5.1
2,COCCn1c(SCC(=O)N2CCN(c3ccccc3)CC2)nc2c(c1=O)SC(C)C2 (centres unmarked),-35.8
3,NC(=O)COC(=O)c1ccccc1SCC(=O)NC1CCCCCCC1,15.9
4,O=C(O)CCCCCCCCCCCc1ccccc1,12.7
5,Cn1c(N)c(S(=O)(=O)NCc2ccc(F)cc2)c(=O)n(C)c1=O,6.63
6,CSc1nsc(SCC(=O)Nc2nncs2)n1,22.7
7,CCC(=O)N1CCc2cc(Br)cc(S(=O)(=O)NCc3ccccc3OC)c21,9.25
8,O=C(O)CSCCn1cccn1,-3.17
9,CCn1c(=O)c(C)nn2c3ccccc3nc12,-0.602
10,O=C(NCc1ccco1)c1cccc(S(=O)(=O)N2CCCCC2)c1,-3.52
11,COc1ccccc1CCC(=O)Nc1ncc(C)s1,13.5
12,O=C1Nc2ccccc2C12NCCc1c2[nH]c2ccccc12 (centres unmarked),7.94
13,O=[N+]([O-])c1ccc(NC(=S)NCc2ccc(F)cc2)cc1,9.98
14,COc1ccc(S(=O)(=O)N2CCN(C(c3ccccc3)c3ccccc3)CC2)cc1NC(C)=O,17.6
15,CCn1c(=S)sc2c(=O)[nH]c(SCC(=O)Nc3cc(OC)ccc3OC)nc21,9.89
16,O=C(O)COc1ccc(/C=N/NC(=O)Cc2ccc(Cl)cc2)cc1,8.94
17,CCOC(=O)C1CCN(c2ncnc3c2oc2ccccc23)CC1,6.71
18,Cc1ccc(NC(=O)C2CCN(C(=O)c3ccco3)CC2)cc1C,9.85
19,COC(=O)c1ccc(OCC(O)CN(CCO)CC(O)Cn2ccc3ccccc32)cc1 (centres unmarked),10.6
20,O=C(O)CSc1c2c(nc3cc(C(=O)Nc4cccc(C(F)(F)F)c4)ccc13)CCC2,10.4
21,COC(=O)c1sc2ccccc2c1-n1cccc1C(=O)C(=O)Nc1ccc(C)cc1,-2.29
22,COc1ccc(C(=O)Nc2ccc(NC(=O)c3ccccc3OC)nc2)cc1,12.9

row,Compound,"hERG current change (%, negative = inhibition) at 1uM [%]"
1,Cc1ccc(S(=O)(=O)/C(C#N)=C/c2c(N3CC(C)OC(C)C3)nc3c(C)cccn3c2=O)cc1 (centres unmarked),6.49
2,CCOC(=O)c1ccccc1NC(=O)Cn1cnc2c(cnn2-c2ccc(OC)cc2)c1=O,0.769
3,CCC(C)[C@H](NC(=O)C1CC(=O)N(c2ccc3c(c2)OCCO3)C1)C(=O)N1CCCCC1 (some centres unmarked),12.2
4,CCCCC1=CC2=CC(=O)C(C)(OC(=O)CC)C(=O)C2=CN1CCc1ccc(Br)cc1 (centres unmarked),-28.7
5,COc1ccc(C(=O)NCc2nnc(SCC(=O)N3CCc4ccccc43)n2Cc2ccccc2)cc1,6.84
6,Cc1ccc(C2=Nc3ccccc3N=C(c3ccc([N+](=O)[O-])cc3)C2)c(O)c1,6.89
7,CSc1nc2ccc(NC(=O)c3c(F)cccc3F)cc2s1,8.93
8,Cc1ccc(/C=C2\SC(=S)N(CCC(=O)NCCCN3CCOCC3)C2=O)cc1,16
9,CCOC(=O)c1ccc(NC(=O)CSc2nnc(C3CC3)n2C)cc1,7.49
10,Cl.Fc1ccc(Nc2nc(N/N=C/c3ccco3)nc(N3CCCCC3)n2)cc1,6.3
11,Cc1cc(C(=O)N/N=C\c2cc(C(C)(C)C)ccc2O)n[nH]1,-11.8
12,Cc1ccc(S(=O)(=O)NCc2ccccc2)cc1C(=O)NCc1ccccn1,10.4
13,CSc1ccccc1OCc1cc(C(=O)NCCc2ccco2)no1,11.6
14,Cc1ccc(C2C3=C(Nc4[nH]n(-c5ccccc5)c(=O)c42)c2ccccc2C3=O)cc1 (centres unmarked),4.71
15,CC(C)Cn1cc(Cl)c(=O)n(CC(C)C)c1=O,22
16,COc1ccc(N2CCN(CCCNC(=O)C3CCCN(S(=O)(=O)c4cnc[nH]4)C3)CC2)cc1 (centres unmarked),2.44
17,Cc1ccc(N(CC(=O)NCc2cccnc2)S(C)(=O)=O)cc1C,12.4
18,Cc1ccc(-c2nnc(NC(=O)c3ccco3)s2)cc1,5.09
19,COc1ccc(OC)c(C2C(C(=O)c3ccccc3)=C(C)Nc3nc4ccccc4n32)c1 (centres unmarked),6.19
20,CCN(CC)S(=O)(=O)c1cc(NS(=O)(=O)c2cc(Cl)ccc2Cl)ccc1C,0.0218
21,O=C(COc1ccccc1Cl)NCCc1ccc2c(c1)OCCO2,6.03
22,CCCNC(C)C(=O)Nc1ccccc1C.Cl (centres unmarked),15.4

row,Compound,"hERG current change (%, negative = inhibition) at 1uM [%]"
1,COCc1ccc(C(=O)N(C)CC2CCCN(CCc3ccc(OC)cc3)C2)o1 (centres unmarked),-38.5
2,COc1ccc2c(c1)c(C(=O)CN1CCC(C(N)=O)CC1)c(C)n2C,12.1
3,CCNc1c(N)c(=O)oc2ccccc12,9.55
4,CC(c1nnc(SCC(=O)c2c(N)n(C3CC3)c(=O)[nH]c2=O)n1-c1ccc(F)cc1)N(C)C (centres unmarked),7.83
5,CN(C(=O)c1ccc(NC(=O)Cc2cccc(NC(=O)C3CCCN(C(=O)C4CCCCC4)C3)c2)cc1)C1CCCC1 (centres unmarked),11.5
6,Cc1ccc(Oc2cc(-n3nc(C)cc3C)ncn2)cc1,-7.39
7,COc1ccccc1CNC(=O)c1cc(C(C)C)nc2ccccc12,6.74
8,Cc1ccc([N+](=O)[O-])cc1S(=O)(=O)NCC1COc2ccccc2O1 (centres unmarked),15.9
9,CCCN1C(=O)S/C(=C/c2ccc(N3CCOCC3)o2)C1=O,11.3
10,COc1ccc(C(CNC(=O)c2ccccc2C)N2CCCC2)cc1 (centres unmarked),-8.13
11,CN(Cc1nc2ccccc2[nH]1)C(=O)C1CCC(=O)N(C2CCCC2)C1 (centres unmarked),5.03
12,CC1(C)CC(=O)C2=C(C1)OC(N)=C(C#N)C2CCc1ccccc1 (centres unmarked),3.79
13,COc1ccc(NC(=O)C(NC(=O)OC(C)(C)C)C(C)OCc2ccccc2)cc1 (centres unmarked),10
14,O=C(COC(=O)CCCSc1nc2ccccc2[nH]1)NC(=O)NC1CCCC1,5.77
15,Cc1ccccc1CN(c1ccc(C(=O)Nc2ccccc2C(=O)N2CCCC2)cc1)S(C)(=O)=O,9.37
16,Nn1c(=O)[nH]c2ccccc2c1=O,21.7
17,N#Cc1ccc(N2CCN(c3ccc(F)cc3)CC2)cc1,1.73
18,COc1ccccc1OC(C)C(=O)Nc1ccccc1C(=O)NCc1cccnc1 (centres unmarked),7.69
19,CNC(=O)c1ccc(CN(C)CC(=O)Nc2ccccc2C(=O)NC2CC2)cc1,6.09
20,N#Cc1ccc(C(=O)Nc2cccc3ncccc23)c(F)c1,-6.72
21,Cc1nc2cc(NC(=O)Nc3cccc4ccccc34)ccc2n1C,10
22,CCCc1cc(=O)[nH]c(SCC(=O)Nc2ccc(OCc3ccccc3)cc2)n1,7.01

row,Compound,"hERG current change (%, negative = inhibition) at 1uM [%]"
1,CS(=O)(=O)N(Cc1ccc(C(=O)NN=C2CCCCCC2)cc1)c1ccccc1,3.5
2,CC(=O)C1=C(O)C(=O)N(c2nccs2)C1c1ccc(F)cc1 (centres unmarked),11.1
3,COc1ccc2nc(C)cc(N3CCN(c4ccccc4)CC3)c2c1,-29
4,O=C(Nc1ccccc1F)N(Cc1ccc(F)cc1)Cc1nc2ccccc2c(=O)[nH]1,12.7
5,O=C(Nc1ccc(N2CCOCC2)cc1)c1cc(-c2ccncc2)nc2ccccc12,-21.8
6,C=C(C)CN(CC)c1ccc(N2C(=O)CCCC2=O)cc1[N+](=O)[O-],18.9
7,Cc1cc(-c2ccc(NC(=O)[C@@H]3CCCC[C@@H]3C(=O)O)c(C)c2)ccc1NC(=O)[C@@H]1CCCC[C@@H]1C(=O)O,9.26
8,CCOC(=O)Cn1c2ccccc2c2nc3ccccc3nc21,6.91
9,O=C(CSCc1ccc(F)cc1)NCc1cccs1,4.9
10,O=P(CCl)(Nc1ccccc1)C(Cl)(Cl)Cl (centres unmarked),10.7
11,Cc1ccc(NC(=O)Nc2nnc(-c3ccncc3)s2)cc1C,12.6
12,CN1C(=O)C(C)(C)c2cc(S(=O)(=O)N3CCCC(C(=O)NCc4ccccc4Cl)C3)ccc21 (centres unmarked),3.68
13,COc1ccccc1-n1c(=O)oc2ccc(Cl)cc2c1=O,8.82
14,COc1ccc(-c2csc(NC(=S)NC(=O)c3ccccc3)n2)cc1Br,5.56
15,O=C(COc1ccc([N+](=O)[O-])cc1)Nc1ccc(NC(=O)c2ccccc2)cc1,17.5
16,Nc1[nH]c(=O)[nH]c(=O)c1N=Nc1cccc(Cl)c1,-2.79
17,COc1ccc(NC(=O)c2cc(S(=O)(=O)N3CCc4ccccc43)cn2C)cc1,6.13
18,O=C(N/N=C/C=C/c1ccco1)/C(=C/c1ccccc1)NC(=O)c1ccccc1,-11.6
19,CCN(C(=O)C1CCN(S(=O)(=O)c2ccc3c(c2)oc(=O)n3C)CC1)c1cccc(C)c1,9.72
20,CS(=O)(=O)N(CC(=O)Nc1ccccc1C(=O)N1CCOCC1)c1ccc(Cl)cc1,11.5
